The supplement of paper PMC10338343
± gives the standard deviation. The entries are a selection whose mix differs from that of the whole data set.

Each sequence was assayed on MIWI (PIWIL1) piRISC loaded with L1MC piRNA (30 nt) (assay: pre-steady-state target cleavage rate (min^-1); MIWI and MILI are mouse PIWI proteins and EfPiwi is from a freshwater sponge; tags in brackets are library labels; higher = faster piRNA-guided slicing of the target). Settings: guide: L1MC piRNA 5'p-UAACUAAAUACUAUGCAAGCUGUAGGUCCU; auxiliary factor: 500 nM mouse GTSF1.
Outline: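 The pre-steady-state cleavage rate came from a burst-and-steady-state fit to pooled data from three Cleave-'n-Seq trials, in which uncleaved targets were sequenced and normalised to depth and to weakly complementary targets. Each reaction held 0.1 nM transcribed, DNA-blocked target RNA library and 1 nM active affinity-purified piRISC carrying one synthetic guide, with or without 500 nM GTSF1 partner protein, in HEPES–potassium acetate buffer at 33 °C for 0–8 or 0–960 min. k3 was capped at 0.0001 min^-1.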

Point of comparison: UGGACCUACAGCUUGGUUAGUAUUUACAAA, “pre-steady-state target cleavage rate” value 0.0192 ± 0.0071. Against it:
- UCCUGGAUGUCGAACGAUAGUCAUUUAGUUA — lower, < 0.0001
- UCCUGCUACAGCUUGCAUAGAAUUUUCAAA — higher, 0.0984 ± 0.02
- UCCUGGAUGUCGUUGCAAAGUAUUUAGUUA — lower, 0.00574 ± 0.0025
- UCCUCCUACAGCUUGCAUAGUAAAAACAAA — higher, 0.16 ± 0.038
- UCCUGGAACAGCUUGCACUAGUAUUUAGUUA — within error, 0.0115 ± 0.0049
- UCCUCCUACAGCUUGCACUAGUAUUUAGUUA — higher, 0.0575 ± 0.021
- UCCUGGAACAGCUUGCUAAGUAUUUAGAAA — within error, 0.00993 ± 0.0048
- UCCUGCUACAGCUUCCAUAGUUUUUAGUUA — higher, 0.0485 ± 0.02
- UCCUGCUAGUGCUUGCAUAGUAUUUUCAAA — within error, 0.0208 ± 0.0062
- UCCUGGAUGAGCUUGCAUAGUAUUAUCUUA — higher, 0.0411 ± 0.011
- UCCUGGAUCAGCAAGCAUAGUAUUUAGUAA — higher, 0.0752 ± 0.012
- UCCUGGAUGUCGUUGCAUAGCAUUUAGUUA — lower, 0.0053 ± 0.0037
- UCCACCUACAGCUACCAUAGUAUUUAGUAA — higher, 0.211 ± 0.034
- UCCUGGAUCAGCUUGCAUAGAUUUUAGUAA — within error, 0.0156 ± 0.0066
- UCCUGGAUCUCCUUGCAUAGUAUUUUCAAA — higher, 0.0569 ± 0.011
- UCCUGGAUGUCCUAGCAUAGUAUUAAGUUA — lower, 0.00457 ± 0.0044
- UCCUGGUACAGCUUGCAUAGUAUUUUCAAA — higher, 0.181 ± 0.03
- UCCUGCUACAGCUUGCAUAGUAAUUAGAAA — higher, 0.212 ± 0.036
- UGGACCUACAGCUUGCAUUCUAUUUAGAAA — within error, 0.0175 ± 0.006
- UCCUCCUACAGCUUGCGAUAGUAUUUAGUUA — higher, 0.0601 ± 0.018
- UCCUGGAUGUCCUAGCAUAGUAUUUAGAUA — lower, 0.00439 ± 0.0033
- UCCACCUACAGCUAGCAUAGUAUUUACAAA — higher, 0.301 ± 0.041
- UCCUCCAUCAGCUUGCAUAGUAUUUUCAAA — higher, 0.239 ± 0.034
- UCGACCUACAGCUUGCAUAGUAAUUACAAA — higher, 0.298 ± 0.048
- UCCUGGAUGUCGAACCAUUAGUAUUUAGUUA — lower, < 0.0001
- UGGACCUACAGCUUGCUAUAGUAUUUAGUUA — within error, 0.0205 ± 0.0066
- UGGACCUACAGCUUGCAUAGUUAAAUCAAA [g10:g29:cont:t1A] — within error, 0.0144 ± 0.0068
- UCCUGGAACAGCUUGCAUAGUAUUAUCAAA [g7:g23:cont:t1A] — higher, 0.138 ± 0.033
- UCCUGGUACACGUUGCAUAGUAUUUAGUAA — higher, 0.178 ± 0.041
- UCCUGGUUCAGCUUCCAUAGUAUUUAGUUA — within error, 0.0207 ± 0.0091
- UCCUCCUACAGCUUGCAUAGUAAUUACAAA — higher, 0.301 ± 0.054
- UCCUGCUACAGCUUGCAUAGUUAAUUCAAA — within error, 0.0141 ± 0.0063
- AGGACCUACAGCUUGCAUAGUAUUAUGAAA — higher, 0.526 ± 0.098
- UCCUGGAUGUCGUUUCAUAGUAUUUAGUUA — within error, 0.0189 ± 0.0048
- UCCUGGAACAGCUUCGAUAGUAUUUAGUAA — higher, 0.0767 ± 0.014
- UCCACCUACAGCUUGCAUUGUAUUUAGAAA — higher, 0.111 ± 0.018
- UCCUGGAUGUCGUUACAUAGUAUUUAGUUA — lower, 0.00793 ± 0.0028
- UCCUGGAACAGCUUGCAUUCAAUUUAGUUA — lower, 0.00455 ± 0.0044
- UGGACCUACAGCUUGCAUUGUAUUUUCAAA — higher, 0.0734 ± 0.016
